In all, about 33,000 sequences were measured (“E-score (-0.5 to 0.5)”: median about -0.035, highest 2% from about 0.34 on). The list shows a part of the results.
The sequences below were run against T1, Mot3 (UniProt P54785) (assay: PBM E-score (8-mer binding enrichment) (E-score (-0.5 to 0.5)); higher = stronger / more preferred TF binding; most listed sequences are background and not binding sites). Details: protein concentration: 200 nM; construct: GST-full length.
T1 sequence: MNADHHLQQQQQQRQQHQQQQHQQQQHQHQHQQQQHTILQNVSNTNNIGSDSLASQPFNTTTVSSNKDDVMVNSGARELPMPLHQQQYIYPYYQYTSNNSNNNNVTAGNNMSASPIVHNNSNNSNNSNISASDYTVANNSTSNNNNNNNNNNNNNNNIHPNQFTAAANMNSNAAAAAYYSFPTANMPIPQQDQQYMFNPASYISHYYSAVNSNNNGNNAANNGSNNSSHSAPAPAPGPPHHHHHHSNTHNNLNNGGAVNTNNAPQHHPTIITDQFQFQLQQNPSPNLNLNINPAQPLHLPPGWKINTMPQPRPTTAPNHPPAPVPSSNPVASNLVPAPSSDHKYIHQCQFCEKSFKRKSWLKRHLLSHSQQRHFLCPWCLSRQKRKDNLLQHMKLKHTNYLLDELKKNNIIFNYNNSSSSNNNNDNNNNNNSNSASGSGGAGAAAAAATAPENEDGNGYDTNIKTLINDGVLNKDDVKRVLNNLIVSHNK
Description: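 Universal 'all 10-mer' protein binding microarrays (Agilent AMADID 015681) probed with GST-tagged S. cerevisiae TFs (full-length or DBD) made by in vitro transcription/translation (PURExpress), about 100-200 nM. Bound TF was detected with fluorescent anti-GST. Each ungapped 8-mer (which stands for itself and its reverse complement) is scored by the PBM enrichment score (E-score), a modified Wilcoxon-Mann-Whitney statistic from -0.5 to +0.5, computed with the Universal PBM Analysis Suite. Scale: above 0.35 generally sequence-specific binding.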

Sequence	PBM E-score
AGAACACG	0.237
GCGCTAAA	-0.018
GTTCGTTA	0.0675
AAGTCGGT	-0.266
GGCACTAC	0.219
CGATTTAG	0.0701
ACTATTCC	-0.106
ATGTGCGG	-0.0249
GGTACTGA	-0.191
GAGTCGCC	-0.319
CGGTTGAG	-0.0756
GAGTACAA	0.106
CCCGAGCA	-0.253
CGGACAAC	-0.0115
ATAGTGAA	0.0719
GACCCGGA	-0.303
CCAAGTGC	-0.181
ACACGCCC	0.29
GGAATCAA	0.0785
GACATGGC	0.0808
CATACCCG	-0.0557
ACCTACAC	0.258
GACCGGCA	-0.116
GTGATGAA	-0.0476
GTAATGCA	0.237

Sequence	PBM E-score
TCCCAAGA	-0.256
ACAAACAT	0.265
AAAAGCTG	-0.143
AATAATGT	0.163
CACATGAC	0.177
CGAACGGA	-0.166
ATGTCTTA	0.189
CCAGCTAA	-0.0514
ACACGGGT	0.348
ATTCAGTA	0.089
CCAGAGTC	-0.224
GTAACGCA	0.188
AAGGCATG	0.303
AGGCGTAA	0.1
CGCATACC	-0.0695
ACTAGCAT	0.0119
CAGACGGA	-0.223
ACATATTC	0.203
AAACCTGT	0.0357
ATCCTCAT	-0.149
GGTCCGCA	-0.143
AGGCAGTC	-0.0291
CTAATAAG	0.0833
ACCTGCAT	0.207
CGACACGA	0.239

Sequence	PBM E-score
AACGAAGC	-0.188
CTCAATTA	0.111
CCTTCTCC	0.0145
CCAACGTC	-0.172
CTAGTTAC	0.0149
AACTTGCG	0.0893
ATCAGACA	0.0849
AGGTTGAC	-0.0563
GTACATTA	0.267
AAGGATTA	0.249
GGCCCCAC	-0.308
CTGACTTC	-0.251
CACGCTGG	-0.0203
CAAGTACA	0.214
AAAGTTTC	-0.0741
GAGTCGCA	-0.351
GGCAATGA	0.246
CAGGTGAG	-0.291
AATCGGCC	-0.319
CCGATCCA	-0.00525
AACGGGCT	-0.223
GGTGATTA	-0.174
ACCCTCCA	-0.157
CATCAGGG	-0.0517
AGCAACCG	-0.217

Sequence	PBM E-score
GTCCCGTA	-0.0776
ATCCACGG	-0.0193
CCGTATCC	-0.173
CATGTGCC	0.31
AATTTAAC	0.229
CACACTAC	0.182
CAGGGGCA	0.0463
CTCCTTCA	0.0358
AGGGATAT	-0.149
ATAAACAA	0.196
CTCATGAA	-0.0903
AGTTTGTG	-0.0641
GCGTAACA	0.196
AATTTGCA	-0.0423
GTCAAACA	0.155
CCCATGGC	-0.281
GTAAGGAA	0.366
CGAGCGAG	0.126
ATTATTCG	0.174
CGTAATAC	0.3
CCGCTGGA	-0.189
ACCCCGTG	-0.103
TTAAAAAA	0.186
GTAGCATA	-0.0576
ACAATTTA	0.134

Sequence	PBM E-score
TCACACAA	0.0924
GAATCTGA	-0.0173
AACGCACG	0.219
CTTGCGGC	-0.158
CTCCAGGC	0.157
CTTCTGCA	-0.0791
GCGAACGA	-0.109
ATGCGACA	0.0177
ACACCCTC	-0.114
GGCCGGCC	-0.38
AATCCCGG	-0.29
GGCAGCAA	0.00515
GCAGACCC	-0.298
CGTATTCC	0.198
CATGGTGG	-0.0263
GATCCGAC	-0.167
ACTCGGCT	-0.34
CGGCAGCC	-0.206
AGTCCATA	-0.281
AATCTTAC	0.181
AATCGTGT	0.286
AAGATGTC	-0.0594
ACGTCCGA	-0.12
AGTCTTAC	-0.0608
AGCTTGCA	-0.0465

Sequence	PBM E-score
AAGTTTGA	0.104
CACGAGCC	-0.132
AACTCGGA	-0.0873
AGACGTCA	-0.0837
CTTTCCAA	-0.0154
AAGCACAT	0.0905
AGAACCGG	-0.217
ACGCCTCC	-0.0931
ATCCCCAG	-0.121
AAATCCTA	0.0766
CACCGAAA	0.0446
CTCACAGC	-0.0824
ATCTGCGG	-0.201
ACCAATTG	-0.199
CCCGGCGC	-0.337
CCGTTGCC	0.167
ATCTGAAT	-0.0896
ACTGAAGA	-0.141
AGGGGGAG	-0.211
AGCCGTTG	-0.158
AGAGATTA	-0.0181
ACTAACCA	0.148
GCGCCTAA	0.205
CATAGGAG	0.0725
ACCCGACG	-0.117

Sequence	PBM E-score
ATACCTTA	-0.0699
TAAGGCAA	0.472
CCACGGCA	-0.14
AGTCATTG	-0.176
AGTGTTAG	0.0278
TCAGGCCA	-0.0359
CCGAACTC	-0.131
AGTGCAGG	0.0699
ACAGGGAG	0.0107
GGCTGTCA	-0.239
CCATGTAA	0.411
ACTCTCAT	-0.154
AGCGGAAA	-0.136
AGATACCA	-0.133
GTATAGAC	0.0959
AGCAGGTA	0.328
CCTATGTA	0.348
GCAGATGA	0.0745
CAAACCGG	-0.0443
CGCAAACG	-0.0554
ACCAAGGC	0.239
CGGCGCTA	-0.158

Reference: the supplement of paper PMC3334620
